# Laboratory results as given in paper PMC4336329 (PLoS ONE, 2015).
# About 2,200 (0.71%) of roughly 310,000 compounds showed an effect of 50% or more. Effects have a minus sign here. Some of the results follow.
# Target: human ether-à-go-go-related gene (hERG) potassium channel (human, UniProt Q12809)
# Assay: primary screen, population patch clamp on CHO cells stably expressing hERG
# human ether-à-go-go-related gene (hERG) potassium channel, sequence (Q12809 whole entry, looked up): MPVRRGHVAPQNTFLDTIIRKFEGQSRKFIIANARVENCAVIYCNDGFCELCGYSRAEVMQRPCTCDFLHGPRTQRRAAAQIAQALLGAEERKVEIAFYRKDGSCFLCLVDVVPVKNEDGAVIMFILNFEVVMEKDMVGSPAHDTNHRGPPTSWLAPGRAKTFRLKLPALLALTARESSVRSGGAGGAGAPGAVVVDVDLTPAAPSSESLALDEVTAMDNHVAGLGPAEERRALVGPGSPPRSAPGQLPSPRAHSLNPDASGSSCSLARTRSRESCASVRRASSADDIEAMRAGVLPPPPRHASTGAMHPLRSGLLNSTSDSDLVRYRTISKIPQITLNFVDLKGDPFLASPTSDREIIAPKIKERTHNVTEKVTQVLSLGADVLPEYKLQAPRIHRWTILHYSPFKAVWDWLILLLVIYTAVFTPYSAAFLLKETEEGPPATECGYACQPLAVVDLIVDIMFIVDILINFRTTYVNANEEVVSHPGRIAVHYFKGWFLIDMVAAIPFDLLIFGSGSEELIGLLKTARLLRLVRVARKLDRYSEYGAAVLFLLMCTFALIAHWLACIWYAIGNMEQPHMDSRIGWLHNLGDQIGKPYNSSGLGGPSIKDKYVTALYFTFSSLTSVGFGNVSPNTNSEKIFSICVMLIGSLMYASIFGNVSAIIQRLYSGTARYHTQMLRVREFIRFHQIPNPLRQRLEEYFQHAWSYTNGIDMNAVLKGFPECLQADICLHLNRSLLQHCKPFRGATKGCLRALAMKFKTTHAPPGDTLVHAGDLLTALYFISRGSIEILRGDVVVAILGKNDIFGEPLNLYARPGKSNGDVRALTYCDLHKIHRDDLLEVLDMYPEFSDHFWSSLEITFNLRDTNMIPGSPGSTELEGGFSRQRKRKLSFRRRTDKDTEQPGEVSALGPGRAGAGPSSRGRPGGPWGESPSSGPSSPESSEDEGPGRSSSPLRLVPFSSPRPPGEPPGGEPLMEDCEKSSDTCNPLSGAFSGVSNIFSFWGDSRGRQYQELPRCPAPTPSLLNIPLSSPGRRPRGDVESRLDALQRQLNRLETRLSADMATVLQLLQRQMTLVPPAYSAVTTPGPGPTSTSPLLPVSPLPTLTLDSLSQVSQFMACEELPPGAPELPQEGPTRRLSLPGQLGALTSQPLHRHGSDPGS
row,SMILES,"hERG current change (%, negative = inhibition) at 1uM [%]"
1,CC(=O)CC(c1ccccc1[N+](=O)[O-])c1c(O)c2ccccc2oc1=O (stereo not shown),10.3
2,O=S(=O)(Nc1cc(Cl)ccc1-n1cncn1)c1ccccc1Cl,-7.45
3,CC(=O)Nc1ccc(S(=O)(=O)N[C@@H](C)C(=O)OCC(=O)NC2CCCC2)cc1,-5.49
4,CCOC(=O)C1(Cc2ccccc2C)CCCN(C(=O)CCn2nccc2C)C1 (stereo not shown),10.3
5,O=Cc1ccc(-c2ccccc2OC(F)(F)F)o1,7.76
6,CCc1nnc(NC(=O)CN2CCN(C(=O)c3ccccc3)CC2)s1,10.9
7,CC1(C)C(C=C(Cl)Cl)C1C(=O)Nc1ccc(S(=O)(=O)Nc2ncccn2)cc1 (stereo not shown),13.2
8,O=C1c2ccccc2C(=O)N1CCCCSc1nnc2c(Cl)cc(Cl)cn12,-20.9
9,CN(Cc1ccc(Cl)cc1)C(=O)c1ccc(S(=O)(=O)NCc2ccco2)cc1,0.605
10,O=c1[nH]c(C2CCCN(S(=O)(=O)c3ccccc3F)C2)nc2c1nnn2Cc1ccccc1Cl (stereo not shown),16.1
11,CC(C)(C)NC(=O)COc1ccc2oc3c(c2c1)CCCC3,15.3
12,CC(=O)c1cnc2nc(SCc3ccccc3C)nn2c1C,14.5
13,O=C(Nc1nnc(SCC(=O)N2CCOCC2)s1)c1ccccc1,7.6
14,C#CCn1c(=O)cc(C)c2ccccc21,8.52
15,O=C1CN(C(=O)COC(=O)/C=C/c2ccco2)c2ccccc2N1,7.65
16,Oc1ccc(/C=N/Nc2ccnc3cc(Cl)ccc23)c(O)c1,15.9
17,CC(C)(C)NC(=O)C(=O)NN=C1CCCCCC1,14
18,COc1ccc(S(=O)(=O)N2CCC(C(=O)NCCC3=CCCCC3)CC2)cc1OC,4.83
19,CCNC(=S)N1CCN(c2cccc(C(F)(F)F)c2)CC1,15.2
20,CC(Oc1ccc2c(c1)oc(=O)c1ccccc12)C(=O)NCC1CCC(C(=O)O)CC1 (stereo not shown),18.4
21,CNS(=O)(=O)c1ccc2ccccc2c1,11.7
22,O.O=C([O-])c1ccn2c(C(=O)c3ccccc3)c(-c3ccccc3)cc2c1,11

row,SMILES,"hERG current change (%, negative = inhibition) at 1uM [%]"
1,COC(=O)CSc1snnc1-c1ccc(F)cc1,4.32
2,CCOc1ccc(N=C2NC(=O)SC2CC(=O)OC)cc1 (stereo not shown),6.47
3,Cc1ccc(CN2CC(C(=O)Nc3cccc(S(=O)(=O)N4CCCCC4)c3)CC2=O)cc1 (stereo not shown),13.2
4,CCc1ccc2c(c1)c1nnc(NN)nc1n2C,-0.333
5,CCOc1ccc(C2C(C(=O)c3cccs3)=C(O)C(=O)N2Cc2cccnc2)cc1 (stereo not shown),8.36
6,O=C(Cc1c(F)cccc1Cl)OCN1C(=O)c2ccccc2C1=O,17.4
7,O=C(CCc1ccc(S(=O)(=O)NCCc2ccccc2)cc1)NCc1ccco1,6
8,O=C(NCCN1CCOCC1)c1cccc(S(=O)(=O)N2CCCCCC2)c1,8.71
9,COc1cc(C2C(C(=O)c3cccs3)=C(O)C(=O)N2Cc2ccco2)cc(OC)c1OC (stereo not shown),4
10,COCCN1Cc2cccc(C(=O)Nc3ccc4c(c3)OCCO4)c2C1=O,2.72
11,CC(C)(C)C1CCC(N2CCN(c3ccccc3)CC2)CC1 (stereo not shown),17.2
12,CN1CCN(C(=O)CCNC(=O)Cn2cnc3ccccc3c2=O)CC1,14.8
13,CC(C)c1nnc(NC(=O)CSc2ncn[nH]2)s1,9.79
14,Cc1ccc(C)c(NC(=O)CCNC(=O)N2C[C@H]3C[C@@H](C2)c2cccc(=O)n2C3)c1,8.68
15,CCc1cccc(C)c1NC(=O)CSc1nnc(-c2cc3cc(Br)ccc3o2)n1CC,15.4
16,CN(C)c1cccc(C(=O)OC(C(=O)Nc2ccc(Cl)cc2C(F)(F)F)c2ccccc2)c1 (stereo not shown),0.322
17,Cl.Fc1c(F)c(F)c(N2CCNCC2)c(F)c1F,16.7
18,CCc1ccccc1NC(=O)Cn1cccc1C1=NC(c2ccccc2)CO1 (stereo not shown),3.85
19,O=C(NCc1ccc(Cl)cc1)c1cc(=O)[nH]c2ccc(S(=O)(=O)N3CCOCC3)cc12,12.7
20,NC(Cc1ccc(OC(F)F)cc1)C(=O)O (stereo not shown),10.9
21,Cc1cccc(NS(=O)(=O)c2cc(C(=O)N3CCOCC3)ccc2Cl)c1,8.2
22,CCOc1ccc(NC(=O)CCNS(=O)(=O)c2cccc3nonc23)cc1,1.12

row,SMILES,"hERG current change (%, negative = inhibition) at 1uM [%]"
1,CC1CCCC(NC(=O)COC(=O)c2ccc(S(=O)(=O)N3CCOCC3)cc2)C1C (stereo not shown),12.1
2,NC(=O)C1CCN(c2c([N+](=O)[O-])cc(C(F)(F)F)cc2[N+](=O)[O-])CC1,2.89
3,Cn1c(/C=N/NC(=O)c2ccccc2)nc2ccccc21,7.06
4,Cc1ccc(CN2[C@@H](Cc3ccccc3)C(=O)CS2(=O)=O)cc1,4.2
5,O=C(COc1ccc2ccccc2c1Br)Nn1cnnc1,-8.48
6,Nc1nonc1C(=O)N/N=C/c1cc2c(cc1[N+](=O)[O-])OCO2,13.8
7,CC(C)Oc1cccc(C(=O)C2CCCN(C(=O)c3cc(C4CC4)[nH]n3)C2)c1 (stereo not shown),6.4
8,CCn1cc(SCC(=O)Nc2cc(C)on2)c2ccccc21,9.96
9,O=C(Nc1cc2c3c(c1)C1CCCC1CN3CC1CCCC21)c1ccccc1 (stereo not shown),9.32
10,CCCn1c(CN2CCN(c3cccc(Cl)c3)CC2)nc2c1c(=O)n(C)c(=O)n2C,-3.54
11,O=C(CC1Nc2ccccc2NC1=O)NC1CCCCC1 (stereo not shown),4.71
12,O=C(Nc1cccc(C(=O)Nc2ccc(F)cc2F)c1)c1ccccc1,9.47
13,Cc1cc(C)c(OCC(=O)OCC(=O)NC2CCC(C)CC2)c(C)c1 (stereo not shown),14.7
14,Cc1cccc(C)c1NC(=O)CN(C)C(=O)c1cc([N+](=O)[O-])ccc1N1CCOCC1,26
15,Cc1ccc(NC(=O)NNC(=O)COc2ccc(Cl)cc2)cc1,13
16,O=C(NCc1ccccn1)c1ccc(CNS(=O)(=O)c2cccc(Cl)c2)cc1,3.96
17,Cc1ccc(S(=O)(=O)NCc2ccccc2)cc1C(=O)NCCc1ccc(S(N)(=O)=O)cc1,1.48
18,NS(=O)(=O)c1cccc(NS(=O)(=O)c2cccc(C(F)(F)F)c2)c1,13.1
19,CC(=O)OCC1OC(OC(C)=O)C(NC(=O)c2cccnc2)C(OC(C)=O)C1OC(C)=O (stereo not shown),3.31
20,CCCNC(=O)Cc1ncn[nH]1,5.94
21,COc1ccc(S(=O)(=O)Nc2ccc(S(=O)(=O)N3CCOCC3)cc2)cc1C,10.6
22,CCCC(C(=O)NCC1CCCO1)N(Cc1ccccc1)C(=O)CNS(=O)(=O)c1ccccc1 (stereo not shown),-0.543

row,SMILES,"hERG current change (%, negative = inhibition) at 1uM [%]"
1,COc1ccc(NC(=O)CCSc2ccc(F)cc2)cc1,10.7
2,O=C(OC1CCCCC1=O)c1cc(Cl)ccc1[N+](=O)[O-] (stereo not shown),10.1
3,O=S(=O)(c1cc(Cl)ccc1Cl)N1CCN2CCCC2C1 (stereo not shown),13
4,O=C(CSc1nnc2scc(-c3ccccc3)n12)NCc1ccco1,3.93
5,CC(C)CN(C(=O)CN1CCN(c2ccccc2O)CC1)c1c(N)n(CC(C)C)c(=O)[nH]c1=O,18.5
6,O=C(CCS(=O)(=O)c1ccc(Cl)cc1)Nc1nc(-c2ccncc2)cs1,-4.83
7,COc1ccc(OC)c(NC(=O)c2cc(-c3ccc(C)cc3O)n[nH]2)c1,-0.884
8,CC(C)C(=O)Nc1cccc(C(=O)Nc2cc([N+](=O)[O-])ccc2Cl)c1,11.8
9,CCC1CCCCN1CCCCOc1cccc(Cl)c1.O=C(O)C(=O)O (stereo not shown),-55.6
10,O=C(CCC1CCCC1)Nc1ccc([N+](=O)[O-])cn1,0.811
11,CCOc1ccccc1NC(=O)CN(c1ccc(Cl)cc1)S(C)(=O)=O,7.55
12,CCOC(=O)Cc1csc(/N=C/c2c(O)n(-c3ccccc3C(F)(F)F)c(=O)c3ccccc23)n1,-3.74
13,O=C(NCc1ccc(Cl)cc1)c1cc(=O)[nH]c2ccccc12,11.5
14,CS(=O)(=O)c1ccc(Cl)c(NC(=O)COC(=O)c2cccc(C#N)c2)c1,5.94
15,Cn1c(NC(=O)c2cc(Cl)ccc2Cl)cc(=O)n(C)c1=O,-6.29
16,O=C(CCNC(=O)N1CC(=O)Nc2ccccc21)Nc1ccc(F)c(Cl)c1,10.5
17,CN(C)CCCNc1c2c(nc3ccccc13)CCC2.Cl,7.24
18,O=C1C(c2ccccc2)NC(=S)N1C1CCCCC1 (stereo not shown),7.14
19,COc1ccc(C(=O)/C=C/Nc2ccccn2)cc1,12.4
20,CCOc1ccccc1N1CC(C(=O)Nc2nccs2)CC1=O (stereo not shown),7.48
21,Cc1cc(C)cc(N(CCC#N)C(=O)CN2C(=O)NC3(CCCC3)C2=O)c1,10.1
22,CCCCN(CC)CCCNC(=O)c1ccc(CS(=O)(=O)c2ccccc2C)o1,2.5
